# Test results reported in publication PMC9911399, “Two distinct binding modes provide the RNA-binding protein RbFox with extraordinary sequence specificity”.
# Residue numbers refer to the chain shown, from its start. The list shows a part of the results.
# T1: RBFOX1 RRM (Homo sapiens, UniProt Q9NWB1 109-208)
# T1 sequence: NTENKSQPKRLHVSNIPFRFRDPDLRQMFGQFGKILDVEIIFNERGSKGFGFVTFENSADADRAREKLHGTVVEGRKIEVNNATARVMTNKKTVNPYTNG
# B1: CAUCCGA (DNA:RNA)
# RNA: GGGAGACCGGAAUUCAGAUUGUCCCAUCCGAUUAAAUCCCGUCGUAGCCACCA
# DNA 1: CAATCTGAATTCCGGTCTCCC
# DNA 2: TGGTGGCTACGACGGGATT
# B2: UGGAACU (DNA:RNA)
# RNA: GGGAGACCGGAAUUCAGAUUGUCCUGGAACUUUAAAUCCCGUCGUAGCCACCA
# DNA 1: CAATCTGAATTCCGGTCTCCC
# DNA 2: TGGTGGCTACGACGGGATT
# B3: CAGUGGA (DNA:RNA)
# RNA: B1 RNA with U27G, C28U, C29G
# DNA 1: CAATCTGAATTCCGGTCTCCC
# DNA 2: TGGTGGCTACGACGGGATT
# B4: UACUUAU (DNA:RNA)
# RNA: B2 RNA with G26A, G27C, A28U, A29U, C30A
# DNA 1: CAATCTGAATTCCGGTCTCCC
# DNA 2: TGGTGGCTACGACGGGATT
# B5: GGUUCGA (DNA:RNA)
# RNA: B1 RNA with C25G, A26G, C28U
# DNA 1: CAATCTGAATTCCGGTCTCCC
# DNA 2: TGGTGGCTACGACGGGATT
# B6: CAUGGUG (DNA:RNA)
# RNA: B1 RNA with C28G, C29G, G30U, A31G
# DNA 1: CAATCTGAATTCCGGTCTCCC
# DNA 2: TGGTGGCTACGACGGGATT
# B7: AGAGGUU (DNA:RNA)
# RNA: B2 RNA with U25A, G27A, A28G, A29G, C30U
# DNA 1: CAATCTGAATTCCGGTCTCCC
# DNA 2: TGGTGGCTACGACGGGATT
# B8: UAAAUGC (DNA:RNA)
# RNA: B1 RNA with C25U, U27A, C28A, C29U, A31C
# DNA 1: CAATCTGAATTCCGGTCTCCC
# DNA 2: TGGTGGCTACGACGGGATT
# B9: GCAUAAC (DNA:RNA)
# RNA: B2 RNA with U25G, G26C, G27A, A28U, C30A, U31C
# DNA 1: CAATCTGAATTCCGGTCTCCC
# DNA 2: TGGTGGCTACGACGGGATT
# B10: CGCGCAG (DNA:RNA)
# RNA: B1 RNA with A26G, U27C, C28G, G30A, A31G
# DNA 1: CAATCTGAATTCCGGTCTCCC
# DNA 2: TGGTGGCTACGACGGGATT
# B11: CUAAGCU (DNA:RNA)
# RNA: B2 RNA with U25C, G26U, G27A, A29G
# DNA 1: CAATCTGAATTCCGGTCTCCC
# DNA 2: TGGTGGCTACGACGGGATT
# B12: UCGCCUA (DNA:RNA)
# RNA: B1 RNA with C25U, A26C, U27G, G30U
# DNA 1: CAATCTGAATTCCGGTCTCCC
# DNA 2: TGGTGGCTACGACGGGATT
# B13: GGUUGAU (DNA:RNA)
# RNA: B2 RNA with U25G, G27U, A28U, A29G, C30A
# DNA 1: CAATCTGAATTCCGGTCTCCC
# DNA 2: TGGTGGCTACGACGGGATT
# B14: UCACAUG (DNA:RNA)
# RNA: B2 RNA with G26C, G27A, A28C, C30U, U31G
# DNA 1: CAATCTGAATTCCGGTCTCCC
# DNA 2: TGGTGGCTACGACGGGATT
# B15: UCUAACA (DNA:RNA)
# RNA: B2 RNA with G26C, G27U, U31A
# DNA 1: CAATCTGAATTCCGGTCTCCC
# DNA 2: TGGTGGCTACGACGGGATT
# B16: ACAUUUC (DNA:RNA)
# RNA: GGGAGACCGGAAUUCAGAUUGUCCACAUUUCUUAAAUCCCGUCGUAGCCACCA
# DNA 1: CAATCTGAATTCCGGTCTCCC
# DNA 2: TGGTGGCTACGACGGGATT
# B17: UUGAACU (DNA:RNA)
# RNA: B2 RNA with G26U
# DNA 1: CAATCTGAATTCCGGTCTCCC
# DNA 2: TGGTGGCTACGACGGGATT
# B18: AUACAAU (DNA:RNA)
# RNA: B16 RNA with C26U, U28C, U29A, U30A, C31U
# DNA 1: CAATCTGAATTCCGGTCTCCC
# DNA 2: TGGTGGCTACGACGGGATT
# B19: CUAAUUC (DNA:RNA)
# RNA: B16 RNA with A25C, C26U, U28A
# DNA 1: CAATCTGAATTCCGGTCTCCC
# DNA 2: TGGTGGCTACGACGGGATT
# B20: CUUCAUU (DNA:RNA)
# RNA: B1 RNA with A26U, C29A, G30U, A31U
# DNA 1: CAATCTGAATTCCGGTCTCCC
# DNA 2: TGGTGGCTACGACGGGATT
# B21: GUCUCGU (DNA:RNA)
# RNA: B1 RNA with C25G, A26U, U27C, C28U, A31U
# DNA 1: CAATCTGAATTCCGGTCTCCC
# DNA 2: TGGTGGCTACGACGGGATT
# B22: UAUGCAG (DNA:RNA)
# RNA: B1 RNA with C25U, C28G, G30A, A31G
# DNA 1: CAATCTGAATTCCGGTCTCCC
# DNA 2: TGGTGGCTACGACGGGATT
# B23: CCCAAGA (DNA:RNA)
# RNA: B1 RNA with A26C, U27C, C28A, C29A
# DNA 1: CAATCTGAATTCCGGTCTCCC
# DNA 2: TGGTGGCTACGACGGGATT
# B24: GACUUUG (DNA:RNA)
# RNA: B16 RNA with A25G, C26A, A27C, C31G
# DNA 1: CAATCTGAATTCCGGTCTCCC
# DNA 2: TGGTGGCTACGACGGGATT
# B25: UGAAGCG (DNA:RNA)
# RNA: B2 RNA with G27A, A29G, U31G
# DNA 1: CAATCTGAATTCCGGTCTCCC
# DNA 2: TGGTGGCTACGACGGGATT
# B26: UAUAACG (DNA:RNA)
# RNA: B2 RNA with G26A, G27U, U31G
# DNA 1: CAATCTGAATTCCGGTCTCCC
# DNA 2: TGGTGGCTACGACGGGATT
# B27: AGGACCC (DNA:RNA)
# RNA: B2 RNA with U25A, A29C, U31C
# DNA 1: CAATCTGAATTCCGGTCTCCC
# DNA 2: TGGTGGCTACGACGGGATT
# B28: CAGGUAG (DNA:RNA)
# RNA: B1 RNA with U27G, C28G, C29U, G30A, A31G
# DNA 1: CAATCTGAATTCCGGTCTCCC
# DNA 2: TGGTGGCTACGACGGGATT
# B29: UUCAAGA (DNA:RNA)
# RNA: B2 RNA with G26U, G27C, C30G, U31A
# DNA 1: CAATCTGAATTCCGGTCTCCC
# DNA 2: TGGTGGCTACGACGGGATT
# B30: ACAUUGU (DNA:RNA)
# RNA: B16 RNA with U30G, C31U
# DNA 1: CAATCTGAATTCCGGTCTCCC
# DNA 2: TGGTGGCTACGACGGGATT
# B31: GGUCAGG (DNA:RNA)
# RNA: B1 RNA with C25G, A26G, C29A, A31G
# DNA 1: CAATCTGAATTCCGGTCTCCC
# DNA 2: TGGTGGCTACGACGGGATT
# Target: T1, RBFOX1 RRM
# Assay: EMSA; HiTS-Eq, 1 nM pool, 10 min; buffer printed only for the single-RNA assays: 10 mM Tris pH 7.5, 150 mM NaCl, 3.4 mM EDTA, 0.001% NP-40, 30 C
# Conditions: tags: His6 N-terminal (pET28a); label: 5' 32P
# Outline: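 Purified RbFox RRM (wild type or mutant) was equilibrated for 10 min in 50 µL with 1 nM of a 5′-radiolabelled pool of RNA with 7 randomized nucleotides, its flanks annealed to DNA oligonucleotides, across increasing protein concentrations. Free RNA was separated by 8% native PAGE, excised, reverse-transcribed, PCR-barcoded and sequenced on an Illumina HiSeq 2500. Relative association constants came from read-count changes of each variant against the control reaction, normalised to the cognate motif.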
row,Binder,binding signal
1,B1,0.00267 KA relative to UGCAUGU
2,B2,0.0197 KA relative to UGCAUGU
3,B3,0.00702 KA relative to UGCAUGU
4,B4,0.00491 KA relative to UGCAUGU
5,B5,0.00546 KA relative to UGCAUGU
6,B6,0.016 KA relative to UGCAUGU
7,B7,0.00979 KA relative to UGCAUGU
8,B8,0.00992 KA relative to UGCAUGU
9,B9,0.00489 KA relative to UGCAUGU
10,B10,0.0125 KA relative to UGCAUGU
11,B11,0.00577 KA relative to UGCAUGU
12,B12,0.00515 KA relative to UGCAUGU
13,B13,0.0204 KA relative to UGCAUGU
14,B14,0.00586 KA relative to UGCAUGU
15,B15,0.00358 KA relative to UGCAUGU
16,B16,0.000869 KA relative to UGCAUGU

row,Binder,binding signal
1,B17,0.0126 KA relative to UGCAUGU
2,B18,0.00133 KA relative to UGCAUGU
3,B19,0.00382 KA relative to UGCAUGU
4,B20,0.00423 KA relative to UGCAUGU
5,B21,0.0159 KA relative to UGCAUGU
6,B22,0.011 KA relative to UGCAUGU
7,B23,0.00241 KA relative to UGCAUGU
8,B24,0.0242 KA relative to UGCAUGU
9,B25,0.0192 KA relative to UGCAUGU
10,B26,0.00688 KA relative to UGCAUGU
11,B27,0.0139 KA relative to UGCAUGU
12,B28,0.0124 KA relative to UGCAUGU
13,B29,0.00554 KA relative to UGCAUGU
14,B30,0.00737 KA relative to UGCAUGU
15,B31,0.0068 KA relative to UGCAUGU
